According to the supplement of paper PMC11383711:
The other results are listed elsewhere or left out. Binding of human antibodies (heavy:light variable regions, tested as scFv in one mRNA-display pool) to influenza hemagglutinin, with or without the stem antibody CR9114 bound first. Score = (mean enrichment − median) / interquartile range of that screen; higher = more enriched, 0 = typical non-binder. Active = above the paper's cut-off per screen: stems 28; unblocked H1 Solomon Islands 5, H1 Michigan 3, H3 5, H5 19, H7 2.85, both B 5; blocked 9, 7, H5 10, H7 10, B Phuket 10, B Lee 11.5. Scores are scaled within each screen and are no affinities; replicates correlate at about 0.6 to 0.9, and antibodies rare in the pool are noisier.

Key:
[1] = target: H1 HA stem construct (mini-HA #4900); experiment: mRNA display binding score; higher = more enriched on the antigen; details: antigen blocked with: nothing
Experimental: (§1)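 A pool of natively paired antibodies, displayed as scFv on mRNA, was selected once on antigen-coated beads and sequenced before and after; two replicates.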

[2] = target: H3 HA stem construct (H3ssF); experiment: as above; details: antigen blocked with: nothing
Experimental: as §1

Row | Binder | mRNA display binding score [1] | mRNA display binding score [2]
1 | C3-2-3F02 (protein) chain 1: VQLVESGGGVVRPGGSLRLSCEASGFTFRVYDMHWVRQAPGKGLEWVAFIRRDGSNEYVIDSVKGRFTISRDNSKNTVYLRMNSLRPEDTALYYCAKLPQRLDEGDYYFDMEVWGQGTTVTVSS chain 2: DIQMTQSPASLSAAVGDRVTITCRASQGVGNDLGWYQQKPGKAPKRLIYAASSLEDGVPSRFSGSGSGTDFTLTISSLQPEDFATYYCLQHSTYPLTFGGGTKVEIK | inactive: -0.902 | inactive: -0.461
2 | 037-10-5E04 (protein) chain 1: QVQLQESGPGLVKPSETLSLTCTVSGTSITTHYWSWIRQTPGKGLEWIGHISSDGTTNFNPSLKSRVTISMDTSKNQFSLNLSSVTAADTAVYYCARDFRERLGHRWEQAFDFWGQGSLVTVSS chain 2: DIQMTQSPSSLSASVGDRVTITCRASQSISSSLNWYRQEPGKAPKFLIYIASNLQSGVPSRFSGSGSGTDFTLTISSLQPEDFATYYCQQSYSTPWTFGQGTKVEIK | inactive: 0.0119 | inactive: -0.284
3 | antibody 2G04 (protein) chain 1: VQLVESGGGLVQPGRSLRLSCAASGFTFDDYAMHWVRQAPGKGLEWVSGINWNSGVVGYADSVKGRFTISRDNAKNSLYLQMTSLRAEDTALYYCAKDMHLSAMDILRDAFNMWGQGTMVTVSS chain 2: DIQMTQSPSTLSASLRDRVTITCRASQSISRWLAWYQQKPGKAPKLLIYAASTLESGVPPRFSGSGSGTEFTLTISSLQPDDFATYYCQQYNSDVTFGQGTRLEIK | inactive: 0.0351 | inactive: -0.232
4 | AG2-B01 (protein) chain 1: VQLVESGGGLIQPGGSLRLSCAVSGFGVSSKYMSWVRQTPGKRLEWVSIIYAGGNTYYGGSLRGRFTISRDTVKNIVFLDMKSLRGEDTAVYYCARGLSNVYPNTFDLWGQGTLVTVSS chain 2: DIVMTQSPFSLPVTPGEPAFISCRSSQSLLHTDGYNYVDWYLQRPGQSPQLLIYLASYRASGVPDRFSGSGSGTDFTLRISRVEADDVGIYYCMQPLQAPTFGQGTRLEIK | inactive: 1.14 | inactive: -0.64
5 | AG13-3G01 (protein) chain 1: VQLVQSGPEVKKPGASVKVSCKASGYTFTSNHIHWLRQAPGQGIEWMGWINPDTGDTEYSRKFQGRVTMTRDTSMTSAYMDLNWLGSADTGVYYCARDRENRLDIVTVPPDNWFDSWGQGTLVTVSS chain 2: EIVMTQSPATLSASPGGRVTLSCRASQSVSNNLVWYQQKPGQAPRLLIYDASTRATGVPGRFSGSGSGTEFTLTISSLQSEDFAIYYCQQYQNWPTFGQGTKVEIK | inactive: -0.674 | inactive: -0.798
6 | K77-1C11 (protein) chain 1: QVQLQESGPGLVKPSETLSLSCTVSGGSISTYDWSWIRQSPGKGLEWIGCIYYIGRTEYNPSLKSRVTISVDTSKNQFSLKLSSVTAADTAVYYCARDGRGYSGYDYYNYYGMDAWGQGTTVTVSS chain 2: NFMLTQPHSVSESPGKTVVISCTRSSGSIDSNYVQWYQQRPGSSPTIVIYVDNQRPSGVPDRFSGSIDSASNSASLTISGLKTEDEADYYCQSNDNNNRVFGGGTKLTVL | inactive: 0.166 | inactive: -0.0597
7 | W85-3D10 (protein) chain 1: EVQLVESGGGLVQPGGSLRLSCAASGLSVSGNYISWVRQAPGKGLEWVSVMYAGGRKYYADSVKGRFSISRDQSKNTVYLQMDSLRVEDTAVYYCAGTYLEWLDYWGQGTLVAVSS chain 2: DIQMTQSPSSLSASVGDRVTITCRASQSISTYLNWYQQRPGRAPKLLIYAASTLQSGVPSRFSGSGSGTDFTLTITGLQPADFATYYCQQTYSSLITFGPGTRVDLK | inactive: -0.374 | inactive: 0.466
8 | 3C11 (protein) chain 1: QVQLVQSGAEVKETGESLNISCKVSGNNFPSYYISWVRQMPGNGLEWMGRIDPSDSDTNYRPSFQGHVTISADKSTSTAYLQWRSLKASDTAMYYCARRATYYYGSGSYFDAFDIWGQGTMVTVSS chain 2: EIVMTQSPLTLPVTPGAPASISCRSSQSLLHSDGYNYLDWYLQKPGQSPQLLIYLGSHRASGVPDRFSGSGSGTDFTLKISRVEAEDVGVYYCMQALQTPDFGQGTRLEIK | inactive: -0.401 | inactive: -0.0531
9 | K77-1C04 (protein) chain 1: QVQLQESGPGLVKPSETLSLTCTVSGGSISSSRYYWGWIRQPPGKGLECIGTIYYTGNTYYNPSLKSRVTISVDTSKNQFSLKLRSVTAADTAVYYCAREGQWLDPNYFDYWGQGALVTVSS chain 2: DIVMTQSPDSLAVSLGERATINCKSSQSVLFRSNNKNCVAWYQQKPGQPPKLLIYWASTRESGVPDRFSGSGSGTDFTLTINSLQAEDVAVYYCQQYYSTPQTFGQGTKVEIK | inactive: 0.552 | inactive: 4.1e-06
10 | 220-14-IgG-1E01 (protein) chain 1: EVQLVESGGGLVQPGGSLRLSCAASGFTSSSYEMNWVRQAPGKGLEWISFISKSESIISYADSVKGRFTISRDSAKNSLYLQLTSLRAEDTAVYYCARLGLLGFGELGPPHWYYAMDVWGQGTTVTVSS chain 2: EIVLTQSPGTLSLSPGERATLSCRASQSVSSTYLVWYRQRPGQAPRLLIYGASKRATGIPDRISGSGSGTDFTLTISRLEPEDFAVYYCQVYGSSPLFAFGPGTK | inactive: 0.69 | inactive: -0.0273
11 | antibody 3C04 (protein) chain 1: VQLVQSGAEVKKPGASVKVSCKASGYTFTYHYVYWVRQAPGQGLEWMGWMSPKTGDTNISQRFQGRVTMTRDTSITTAYMEMSRLRFDDTAVYYCTRGQYSDHFDSWGQGTLVTVSS chain 2: SYELTQPPSVSVAPGQTAMITCGGNHIGTKSVHWYQQRPGQAPVLVVYDNRVRSSGIPERFSGSNSGNTATLTISRVEAGDEADYYCQVWDSSSDHNVVFGGGTKLTVL | inactive: -1.13 | inactive: -0.026
12 | C1-2-C06 (protein) chain 1: VQLLESGGGLVQPGGSLRLSCVASGFSFSKYGMSWVRQVPGKGLEGVASVSVGGGYSHYSDYVAGRFVISKEVSSNTLHLQMSRLRAEDTAVYYCVKNRGWQLGPDAFDSWGQGTMVTVSS chain 2: AIQLTQSPSSLSASLGDRVVITCRASQGVNRDLAWYQQKPGEVPSLLMSSVSLMKSGVPSRFSGSGSGTDFTLTINGLQSEDFAIYYCQQFNSYPITFGQGTRLEIK | inactive: -0.191 | inactive: 1.82
13 | W85-1F07 (protein) chain 1: QVQLAQSGPEVKKPGTSVKVSCKASGFTFSRAAVQWVRQARGQPLEWMGWIVGGSGKANYAQKFQERVTITRDMSTSTAYMELSSLRSEDTAVYYCAADASGYDLHYYYYYGMDVWGQGTTVTVSS chain 2: QSALTQPASVSGSPGQSITISCTGTSSDVGGYDFVSWYQQCPDNAPKLMIYEVSHRPSGVSNRFSGSKSGNTASLTISGLRSEDEADYYCSSYTITNTWVFGGGTKLTVL | inactive: -0.354 | inactive: -0.0147
14 | AG8-2D02 (protein) chain 1: VQLVQSGAEVKKPGASVRLSCKASGFRFTNYYFNWVRQAPGQGLEWMGIINPSGGATTYAQKFQGRVTMTRDTSTSTVYMELGSLRSEDTAVYYCARMATLTASYFYSYGMDVWGQGTTVTVSS chain 2: EIVLTQSPGTLSLSPGERVTLSCRASQSVSSSYVAWYQQKPGQAPRLLIYAASTRATGIPDRFSGSGSGTDFTLTISRLEPEDFAVYYCQQYGTSPALTFGGGTKVEIK | inactive: 0.0462 | inactive: 10.7
15 | 01.g.01 (protein) chain 1: EVQLVESGGGLVKPGGSLRLSCAASGFTFSSYSMNWVRQAPGKGLEWVSSISSNSYFIYYADSVKGRFTISRDNAKNSLSLQMNSLRAEDTAIYYCARDAGSTGYDYYFDYWGQGTLVTVSS chain 2: EIVMTQSPATLSVSPGERATLSCRASQSVSSNLAWYQQKPGQAPRLLIYGASTRATGIPARFSGSGSGTEFTLTISSLQSEDFAVYYCQHYNNWPPWTFGQGTKVEIK | inactive: -0.678 | inactive: -0.49
16 | R95-1B02 (protein) chain 1: QVHLQESGPGLVKPSETLSLTCSVSAGSLTSHFWSWIRQPPGKGLEWIGYIHHSGTTGYNPSLKSRVTISVDTSKNQFSLHLTSVTAADTAVYYCARDGSSTSWYFDFWGRGTLVTVSS chain 2: QSALTQPRSVSGSPGQSVTISCTGTASDVGAYDFVSWYRQHPGKAPKLIIYDVSQRPSGVPDRFSGSKSGNTASLTISGLQADDEGDYHCCSYTGTDTSGVFGGGTKLTVL | inactive: 0.125 | inactive: 0.0683
17 | R95-1G10 (protein) chain 1: EVQLVESGGGSVQPGGSLRLSCAASGFSFSNYWMHWVRQAPGKGLVWVSRVISDGTITSYVDSVEGRFTISRDNAENTLYLQMDSLRAEDTAVYYCARGYSTSSGIWYFDLWGRGTLVTVSS chain 2: SYELTQPPSVSVAPGQTARVTCGGDNIGSKSVHWYQQKSGQAPVLVVYDDSDRPSGIPERFSGSNSGNTATLTISRVEAGDEADYYCQVWDSSTDHWVFGGGTKLTVL | inactive: -0.602 | inactive: -0.381
18 | K77-2F02 (protein) chain 1: EVQLVESGGVVVQPGGSVRLSCAASGFTFDDYAMHWVRQAPGKSLEWVSLISWDGGNTYYADSVRARFTISRDNDKNSLYLQINSSRPEDTALYYCARDQGSSWYSGKLGIDYWGQGALVTVSS chain 2: DIVMTQTPLSLSVTPGQPASISCKSSHSLLHSDGKTYLYWYLQKPGQSPHLLIYEVSSRFSGVPDRFSGSGSGTDFTLKISRVEAEDVGVYYCMQGMHVPRLTFGGGTKVEIK | inactive: -0.187 | inactive: -0.573
19 | 220-14-IgG-1A03 (protein) chain 1: EVQLVESGGGLVQPGGSLRLSCAASGFTFSNYWMNWVRQGPGKGLVWVARINSDGSRTIYADSVKGRFTISRDNPKNTLYLEMNSLRAEDTAVYFCAREPYFPLYFDYWGQGALVTVSS chain 2: DIVMTQSPLSLPVTPGEPASISCRSSQSLLHRNEDNYLNWYLQKPGQSPQILIYFGSNRASGVPDRFSGSGSGTDFTLKISRVEAEDVGVYYCMQALQTPFTFGQGTKVEIK | inactive: -0.171 | inactive: 0.204
